The list shows a part of the results. Repeats are few or missing, and single values can be far off.
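Further: cells treated in 1,536-well plates, then fixed and DAPI-stained, with nuclei counted from automated high-throughput microscope images.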

For this test, the system named is WM3619. Briefly: cell count relative to DMSO control; melanoma cells; higher = more viable cells. Conditions: library dose: standard library concentration; 72 h.
`NC(=O)c1ccc(N(C(N)=O)c2c(F)cccc2F)nc1-c1ccc(F)cc1F` + OCCn1cc(-c2cnc3nnn(Cc4ccc5ncccc5c4)c3n2)cn1 [PF04217903] (first compound 2 µM, partner dose 5 µM) gave a cell count of 128%.

In turn, `NC(=O)c1ccc(N(C(N)=O)c2c(F)cccc2F)nc1-c1ccc(F)cc1F` + NCC(=O)Nc1ccc(-n2nc(C(F)(F)F)cc2-c2ccc3c(ccc4ccccc43)c2)cc1 [OSU03012] (first compound 2 µM, partner dose 5 µM) registered a cell count of 70.3%.

Turning to `CCCCCCCCc1ccc(CCC(N)(CO)CO)cc1` [fingolimod] + O=C(O)c1ccc(-c2c[nH]c3ncc(-c4ccccc4)cc23)cc1C1CCCC1 [GSK650394] (first compound 10 µM, partner dose 0.8 µM), the cell count is 1.78%.

The compound `CCCCCCCCc1ccc(CCC(N)(CO)CO)cc1` [fingolimod] + OCCn1cc(-c2cnc3nnn(Cc4ccc5ncccc5c4)c3n2)cn1 [PF04217903] (first compound 10 µM, partner dose 5 µM) came in with a cell count of 2.07%.

The compound `CCCCCCCCc1ccc(CCC(N)(CO)CO)cc1` [fingolimod] + Cc1ccc(NC(=O)c2cccc(N(C)C)c2)cc1NC(=O)c1ccc(O)cc1 [ZM336372] (first compound 10 µM, partner dose 10 µM) yielded a cell count of 1.08%.

In the case of `CCCCCCCCc1ccc(CCC(N)(CO)CO)cc1` [fingolimod] + Cc1cc(N2CCOCC2)cc2[nH]c(-c3c(NC[C@@H](O)c4cccc(Cl)c4)cc[nH]c3=O)nc12 [BMS536924] (first compound 10 µM, partner dose 1 µM), the cell count came to 1.8%.

The compound `CCCCCCCCc1ccc(CCC(N)(CO)CO)cc1` [fingolimod] + COc1cc(Nc2ncc(F)c(Nc3ccc4c(n3)NC(=O)C(C)(C)O4)n2)cc(OC)c1OC [Tamatinib] (first compound 10 µM, partner dose 2 µM) had a cell count of 0.646%.

Consider `CCCCCCCCc1ccc(CCC(N)(CO)CO)cc1` [fingolimod] + NCC(=O)Nc1ccc(-n2nc(C(F)(F)F)cc2-c2ccc3c(ccc4ccccc43)c2)cc1 [OSU03012] (first compound 10 µM, partner dose 5 µM), for which the cell count is 4.3%.

For `CC(C)(C)c1cnc(CSc2cnc(NC(=O)C3CCNCC3)s2)o1` + Cn1cncc1[C@@](N)(c1ccc(Cl)cc1)c1ccc2c(c1)c(-c1cccc(Cl)c1)cc(=O)n2C [tipifarnib] (first compound 0.05 µM, partner dose 0.05 µM), the cell count was determined as 37.1%.

As to `CCCCCCCCc1ccc(CCC(N)(CO)CO)cc1` [fingolimod] + Cn1cncc1[C@@](N)(c1ccc(Cl)cc1)c1ccc2c(c1)c(-c1cccc(Cl)c1)cc(=O)n2C [tipifarnib] (first compound 10 µM, partner dose 0.05 µM), the cell count stood at 6.24%.

`Cc1ccc(NC(=O)c2cccc(N(C)C)c2)cc1NC(=O)c1ccc(O)cc1` + CC(C)(C)c1cnc(CSc2cnc(NC(=O)C3CCNCC3)s2)o1 [SNS-032] (first compound 10 µM, partner dose 0.05 µM) returned a cell count of 81.3%.

In turn, `CCCCCCCCc1ccc(CCC(N)(CO)CO)cc1` [fingolimod] + CC1(C)NC(=O)N(c2ccc([N+](=O)[O-])c(C(F)(F)F)c2)C1=O [nilutamide] (first compound 10 µM, partner dose 5 µM) gave a cell count of 1.75%.

Compound `NC(=O)c1ccc(N(C(N)=O)c2c(F)cccc2F)nc1-c1ccc(F)cc1F` + COc1cc(Nc2ncc(F)c(Nc3ccc4c(n3)NC(=O)C(C)(C)O4)n2)cc(OC)c1OC [Tamatinib] (first compound 2 µM, partner dose 2 µM) yielded a cell count of 68.1%.

For the compound `Cc1ccc(NC(=O)c2cccc(N(C)C)c2)cc1NC(=O)c1ccc(O)cc1` + C[C@@H]1CCN(C(=O)CC#N)C[C@@H]1N(C)c1ncnc2[nH]ccc12 [CP690550] (first compound 10 µM, partner dose 5 µM), the cell count amounted to 78.9%.

As for `CC(C)(C)c1cnc(CSc2cnc(NC(=O)C3CCNCC3)s2)o1` + OCCn1cc(-c2cnc3nnn(Cc4ccc5ncccc5c4)c3n2)cn1 [PF04217903] (first compound 0.05 µM, partner dose 5 µM), the cell count came to 56.7%.

On to `CCCCCCCCc1ccc(CCC(N)(CO)CO)cc1` [fingolimod] + CN(NC(=O)CC(=O)NN(C)C(=S)c1ccccc1)C(=S)c1ccccc1 [STA4783] (first compound 10 µM, partner dose 0.03 µM), for which the cell count came to 2.52%.

The values above are taken from the supplement of paper PMC4604168 (melanoma cell lines).
